The list shows a part of the results. At the low end of the ranking the order means little.
Each sequence was assayed on T1, GST-NbGlk1(82-244) (assay: protein-binding microarray). Settings: NbGlk1 is a Golden2-like transcription factor of Nicotiana benthamiana; high values mean tight binding; most listed sequences are background and not binding sites; double strand, one strand shown.
T1 sequence: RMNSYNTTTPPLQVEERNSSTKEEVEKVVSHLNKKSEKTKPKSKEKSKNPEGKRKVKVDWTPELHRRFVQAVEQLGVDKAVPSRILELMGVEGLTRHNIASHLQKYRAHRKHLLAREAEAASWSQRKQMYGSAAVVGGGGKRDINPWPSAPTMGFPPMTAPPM
With CAGACGAG the binding signal was -0.136 E-score.
AATCTTTC gave a binding signal of 0.387 E-score.
With AGTACTCA the binding signal was -0.125 E-score.
Work on ATGCGCGG yielded a binding signal of -0.0606 E-score.
ACCTCGCA was tested, and the binding signal was -0.0939 E-score.
CAATGAGG was tested, and the binding signal was -0.0731 E-score.
With ATCTCTCG the binding signal was 0.231 E-score.
CACTCATC was tested, and the binding signal was -0.0744 E-score.
AGGGAATA was tested, and the binding signal was 0.196 E-score.
ATGTGGGG showed a binding signal of -0.184 E-score.
Work on AATGGCAA yielded a binding signal of -0.0366 E-score.
For ACCTTTTA, the binding signal was 0.0069 E-score.
AAAGGCCC was tested, and the binding signal was -0.411 E-score.
Sequence AGAACGTC has a binding signal of -0.0857 E-score.
CAACCAAA was tested, and the binding signal was 0.0618 E-score.
AACCGTCT showed a binding signal of -0.0831 E-score.
AGTCGGCG gave a binding signal of -0.194 E-score.
Sequence ACGTACCG has a binding signal of -0.243 E-score.
With AGAGTGAT the binding signal was 0.0279 E-score.
With AGACACCC the binding signal was -0.259 E-score.
In the case of ATGGCTGG, the binding signal is reported as -0.261 E-score.
AGTGGGAG was tested, and the binding signal was -0.0151 E-score.
AGTCCTGA showed a binding signal of 0.0152 E-score.
ACCAACAC gave a binding signal of -0.0999 E-score.
CAATTGGC gave a binding signal of -0.118 E-score.
For ACTGCGAG, the binding signal was -0.188 E-score.
AGGTGTAG was tested, and the binding signal was -0.226 E-score.
For ATTACGTG, the binding signal was 0.343 E-score.
For ATACATTA, the binding signal was 0.143 E-score.
In the case of ACTTCAGC, the binding signal is reported as -0.0718 E-score.
With CAGCCCCG the binding signal was -0.14 E-score.
For AGTGGGGG, the binding signal was -0.205 E-score.
CAACTCTA was tested, and the binding signal was 0.00695 E-score.
Work on AACTTGGC yielded a binding signal of -0.0286 E-score.
Work on AGAATACC yielded a binding signal of -0.0837 E-score.
Sequence AGTATCAG has a binding signal of 0.272 E-score.
In the case of AATACCTA, the binding signal is reported as 0.0521 E-score.
In the case of AGCTTTCC, the binding signal is reported as -0.0521 E-score.
For AAGATCCT, the binding signal was 0.339 E-score.
In the case of AGCCCAAC, the binding signal is reported as -0.156 E-score.
AAGCCAAG gave a binding signal of -0.2 E-score.
In the case of ATGCGACA, the binding signal is reported as -0.0572 E-score.
AATTGTGC showed a binding signal of 0.0307 E-score.
For ATTAATAG, the binding signal was 0.0377 E-score.
AACCAGAT was tested, and the binding signal was 0.301 E-score.
ATGTTTCG showed a binding signal of -0.00207 E-score.
Sequence CACAACTA has a binding signal of -0.0583 E-score.
For ATTCGTGG, the binding signal was 0.155 E-score.
For ACGAAAGA, the binding signal was 0.15 E-score.
With AGAATCTC the binding signal was 0.469 E-score.
CAACTCCG gave a binding signal of -0.0631 E-score.
ACGGTGTA gave a binding signal of -0.0358 E-score.
Work on ACCAGCGA yielded a binding signal of 0.0697 E-score.
ACATCGAC showed a binding signal of -0.145 E-score.
Sequence AGTAGCGC has a binding signal of -0.246 E-score.
Sequence AATGCAAG has a binding signal of 0.0142 E-score.
ATTGTTCA gave a binding signal of 0.0569 E-score.
ACTCTACT gave a binding signal of -0.0332 E-score.
ATAGCGGA was tested, and the binding signal was 0.0945 E-score.
For AGAGAAAC, the binding signal was -0.0997 E-score.
ATGTCAGG gave a binding signal of -0.16 E-score.
Work on ACCTTTAG yielded a binding signal of -0.134 E-score.
In the case of AGACATCT, the binding signal is reported as 0.0442 E-score.
Work on AGTCGCGC yielded a binding signal of -0.0545 E-score.
Sequence AACCGATG has a binding signal of -0.176 E-score.
CACCAAGC showed a binding signal of -0.215 E-score.
Work on AGACCGAC yielded a binding signal of -0.209 E-score.
ATTTGTTG was tested, and the binding signal was 0.185 E-score.
With CAAACCCG the binding signal was -0.126 E-score.
In the case of AAACGGCG, the binding signal is reported as -0.144 E-score.
AAACGATT was tested, and the binding signal was 0.154 E-score.
ATATCCGC gave a binding signal of 0.411 E-score.
AAACAGTT gave a binding signal of -0.0481 E-score.
With AAATGCGA the binding signal was 0.127 E-score.
In the case of AATTAAAT, the binding signal is reported as 0.15 E-score.
For AGGCGCCG, the binding signal was -0.172 E-score.
For ACGACCAT, the binding signal was -0.128 E-score.
AGTCGTTA showed a binding signal of 0.0945 E-score.
With ATGAGAAT the binding signal was 0.351 E-score.
With ACGGGGTA the binding signal was -0.115 E-score.
ACAATATA gave a binding signal of 0.206 E-score.
In the case of AACAAGAT, the binding signal is reported as 0.228 E-score.
Work on ACTATACA yielded a binding signal of 0.074 E-score.
AAACTATA showed a binding signal of 0.104 E-score.
CACAGCCA showed a binding signal of 0.00778 E-score.
ACACGCAA showed a binding signal of 0.11 E-score.
Work on AGAGGGGC yielded a binding signal of -0.176 E-score.
With ACTAATAG the binding signal was -0.0821 E-score.
AAGGCAAA gave a binding signal of 0.0278 E-score.
With AACCACAT the binding signal was -0.109 E-score.
In the case of AAATAGAT, the binding signal is reported as 0.264 E-score.
Sequence AGATCGAA has a binding signal of 0.146 E-score.
With ACGAGCGG the binding signal was -0.299 E-score.
AAAGACTG was tested, and the binding signal was 0.0291 E-score.
AAGTTACA was tested, and the binding signal was -0.0727 E-score.
Sequence ACAGGGGG has a binding signal of -0.248 E-score.
ACACACGA was tested, and the binding signal was -0.0169 E-score.
For ATGCGCCC, the binding signal was -0.222 E-score.
ATTGGTGG was tested, and the binding signal was 0.00656 E-score.
With AGTGGTAA the binding signal was -0.0592 E-score.
With ATCAGAGA the binding signal was 0.238 E-score.
ACTCCGGC gave a binding signal of -0.178 E-score.
For AAAATACT, the binding signal was 0.174 E-score.
AAGAATTA showed a binding signal of 0.13 E-score.
CAATTTAG showed a binding signal of 0.167 E-score.
ATCCAATA was tested, and the binding signal was 0.324 E-score.
AACACCGT gave a binding signal of -0.122 E-score.
Sequence AAATAACC has a binding signal of 0.163 E-score.
AACCTTGA showed a binding signal of -0.0413 E-score.
AGAAAAAG showed a binding signal of -0.0842 E-score.
CAATTGTC was tested, and the binding signal was -0.0786 E-score.
AAGCCTAG gave a binding signal of -0.241 E-score.
AATCAATG showed a binding signal of 0.154 E-score.
For AGCCAATA, the binding signal was -0.0547 E-score.
AAGTACTG showed a binding signal of -0.0772 E-score.
With ACATTGAC the binding signal was -0.0538 E-score.
Work on AGTGGCAT yielded a binding signal of -0.11 E-score.
CACGGCAC was tested, and the binding signal was -0.0757 E-score.
Sequence ATAAGTTC has a binding signal of 0.0665 E-score.
In the case of ACCTGTGC, the binding signal is reported as -0.181 E-score.
With AGTGTTGG the binding signal was -0.0944 E-score.
Work on AAATCCAA yielded a binding signal of 0.426 E-score.
ATACTCAG was tested, and the binding signal was 0.177 E-score.
Work on ACCCTCTA yielded a binding signal of -0.123 E-score.
CAGATGAC gave a binding signal of -0.117 E-score.
Sequence AACAGGAC has a binding signal of -0.0652 E-score.
For ATGTAAAT, the binding signal was 0.196 E-score.
ACGCCATA gave a binding signal of -0.035 E-score.
With AGCGGTCC the binding signal was -0.303 E-score.
Sequence ATAAACTG has a binding signal of -0.0273 E-score.
In the case of AGCGCTTC, the binding signal is reported as -0.112 E-score.
With AATCTAAA the binding signal was 0.403 E-score.
In the case of ATAATCCC, the binding signal is reported as 0.212 E-score.
In the case of ACGCCGTC, the binding signal is reported as -0.249 E-score.
For ACAGTGAC, the binding signal was -0.124 E-score.
Work on AAGCGTGT yielded a binding signal of -0.174 E-score.
Work on AATGGGAG yielded a binding signal of -0.0719 E-score.
With AATATCAC the binding signal was 0.34 E-score.
CAACGAAA showed a binding signal of 0.0656 E-score.
For ATTACAAT, the binding signal was 0.347 E-score.
AGAAACCT showed a binding signal of -0.0687 E-score.
ACATCTTA was tested, and the binding signal was 0.0642 E-score.
ATCCACAA was tested, and the binding signal was 0.29 E-score.
ACTTCACT showed a binding signal of -0.156 E-score.
For ACTCCATG, the binding signal was -0.198 E-score.
Sequence ACAGTAGC has a binding signal of -0.0641 E-score.
Sequence ATTGCATC has a binding signal of 0.196 E-score.
For CAAACCTC, the binding signal was -0.092 E-score.
In the case of ATCGACAA, the binding signal is reported as 0.0391 E-score.
In the case of ATTTGGTC, the binding signal is reported as 0.18 E-score.
ATTATGGC gave a binding signal of 0.0912 E-score.
AGTCTGAC showed a binding signal of -0.139 E-score.
AGAACGAA showed a binding signal of 0.0167 E-score.
Sequence AGACCAGA has a binding signal of -0.151 E-score.
In the case of ATGAACTG, the binding signal is reported as -0.015 E-score.
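Further: rank-based score ranging −0.5 to +0.5 with E above 0.45 taken as significant binding.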
